From the supplement of paper PMC4996465
Viability of KB3-1 and Nalm-6 cells after 48 h of drug alone (CellTiter-Glo), 11 doses over about 4.5 log units. % of DMSO wells, lower = more cell loss; AC50 from the fitted curve, lower = more potent. No active / inactive call. Nalm-6 was screened in two runs. AC50 is listed only for well-fitted inhibitory curves. KB3-1 is a HeLa-derived carcinoma line, Nalm-6 a B-cell precursor leukaemia line.

Legend:
[1] = test system: KB3-1; assay: viability (% of DMSO control); higher = more viable cells
Procedure: (§1)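 Eleven-dose screen of the NCATS MIPE 3 library on cells without co-treatment; CellTiter-Glo after 48 h, as % of DMSO wells.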

[2] = test system: Nalm-6; assay: as above
Procedure: as §1

| SMILES | viability ([1]; 0.00078 µM) [%] | viability ([1]; 0.00234 µM) [%] | viability ([1]; 0.00702 µM) [%] | viability ([1]; 0.0211 µM) [%] | viability ([1]; 0.0632 µM) [%] | viability ([1]; 0.19 µM) [%] | viability ([1]; 0.569 µM) [%] | viability ([1]; 1.71 µM) [%] | viability ([1]; 5.12 µM) [%] | viability ([1]; 15.4 µM) [%] | viability ([1]; 46.1 µM) [%] | viability ([2]; run: 1, 0.00078 µM) [%] | viability ([2]; run: 1, 0.00234 µM) [%] | viability ([2]; run: 1, 0.00702 µM) [%] | viability ([2]; run: 1, 0.0211 µM) [%] | viability ([2]; run: 1, 0.0632 µM) [%] | viability ([2]; run: 1, 0.19 µM) [%] | viability ([2]; run: 1, 0.569 µM) [%] | viability ([2]; run: 1, 1.71 µM) [%] | viability ([2]; run: 1, 5.12 µM) [%] | viability ([2]; run: 1, 15.4 µM) [%] | viability ([2]; run: 1, 46.1 µM) [%] | viability ([2]; run: 2, 0.00078 µM) [%] | viability ([2]; run: 2, 0.00234 µM) [%] | viability ([2]; run: 2, 0.00702 µM) [%] | viability ([2]; run: 2, 0.0211 µM) [%] | viability ([2]; run: 2, 0.0632 µM) [%] | viability ([2]; run: 2, 0.19 µM) [%] | viability ([2]; run: 2, 0.569 µM) [%] | viability ([2]; run: 2, 1.71 µM) [%] | viability ([2]; run: 2, 5.12 µM) [%] | viability ([2]; run: 2, 15.4 µM) [%] | viability ([2]; run: 2, 46.1 µM) [%] |
| --- | --- | --- | --- | --- | --- | --- | --- | --- | --- | --- | --- | --- | --- | --- | --- | --- | --- | --- | --- | --- | --- | --- | --- | --- | --- | --- | --- | --- | --- | --- | --- | --- | --- |
| COCCNCCCn1c(C(=O)CF)c(-c2ccc(C)cc2)c2c(N)ncnc21 [FMK-MEA] | 94.6 | 100 | 103 | 103 | 106 | 103 | 103 | 106 | 98.7 | 104 | 90.1 | 108 | 115 | 117 | 116 | 118 | 114 | 102 | 109 | 103 | 94.9 | 93.2 | 104 | 105 | 104 | 97.8 | 106 | 101 | 106 | 103 | 103 | 102 | 92 |
| C[C@]12CCC(=O)C(O)=C1CC[C@@H]1[C@@H]2CC[C@]2(C)C(=O)CC[C@@H]12 [Formestane] | 109 | 103 | 105 | 109 | 114 | 108 | 110 | 100 | 102 | 104 | 95.9 | 120 | 110 | 117 | 119 | 121 | 117 | 118 | 117 | 99.1 | 102 | 93.1 | 102 | 106 | 107 | 101 | 103 | 104 | 105 | 107 | 96.4 | 90.3 | 85 |
| C[C@H](NC(=O)Cc1cc(F)cc(F)c1)C(=O)N[C@H](C(=O)OC(C)(C)C)c1ccccc1 [GSI-9] | 96.6 | 94.5 | 90.6 | 94 | 91 | 96.2 | 93.5 | 95.3 | 98.1 | 94.1 | 86.4 | 97.4 | 105 | 89 | 102 | 102 | 112 | 101 | 105 | 106 | 98.1 | 91.6 | 107 | 104 | 97.6 | 107 | 101 | 105 | 102 | 99.4 | 99.9 | 96.9 | 94.6 |
| O=C(NCC[S+](=O)([O-])c1ccc(C(F)(F)F)cn1)c1ccc(Cl)cc1 [GSK-3787] | 103 | 104 | 107 | 102 | 103 | 110 | 103 | 95.6 | 106 | 105 | 103 | 102 | 106 | 114 | 110 | 108 | 105 | 117 | 116 | 111 | 108 | 101 | 113 | 106 | 107 | 101 | 96.8 | 111 | 109 | 99.9 | 107 | 103 | 102 |
| O=C(/C=C/c1ccc(/C=C/C(=O)Nc2ccc(C3=NCCN3)cc2)cc1)Nc1ccc(C2=NCCN2)cc1 [GW 4869] | 107 | 110 | 107 | 113 | 111 | 107 | 107 | 106 | 103 | 103 | 107 | 123 | 119 | 128 | 113 | 127 | 120 | 128 | 125 | 119 | 109 | 112 | 112 | 114 | 111 | 110 | 114 | 111 | 51.2 | 111 | 108 | 93.7 | 107 |
| Cc1cc(SCc2sc(-c3ccc(C(F)(F)F)c(F)c3)nc2C)ccc1OCC(=O)O [GW-0742] | 101 | 99.8 | 104 | 102 | 106 | 100 | 104 | 101 | 102 | 100 | 78.5 | 105 | 112 | 117 | 113 | 113 | 114 | 118 | 122 | 125 | 115 | 72.3 | 108 | 112 | 116 | 104 | 107 | 113 | 113 | 110 | 117 | 111 | 81.3 |
| CC(C)(Sc1ccc(CCN(CCCCC2CCCCC2)C(=O)NC2CCCCC2)cc1)C(=O)O [GW-7647] | 95.4 | 97.9 | 96.1 | 103 | 103 | 99.3 | 103 | 104 | 104 | 103 | 91.3 | 112 | 115 | 107 | 120 | 110 | 115 | 119 | 122 | 117 | 120 | 65.9 | 102 | 105 | 110 | 108 | 99.5 | 104 | 112 | 106 | 106 | 101 | 55.1 |
| O=C(O)CCc1ccc(NCc2cccc(Oc3ccccc3)c2)cc1 [GW-9508] | 106 | 113 | 104 | 106 | 106 | 105 | 112 | 107 | 102 | 96.8 | 94.8 | 116 | 125 | 124 | 117 | 121 | 115 | 118 | 115 | 116 | 115 | 92.8 | 110 | 106 | 101 | 104 | 104 | 108 | 104 | 97.8 | 99 | 105 | 96 |
| O=C(/C=C/c1c(C(=O)[O-])[nH]c2cc(Cl)cc(Cl)c12)Nc1ccccc1 [Gavestinel sodium] | 88.3 | 90.6 | 93.8 | 90.8 | 93 | 91.6 | 96 | 95 | 97.4 | 95.2 | 89 | 64.2 | 80.9 | 91.4 | 96.1 | 84.5 | 95 | 109 | 97.7 | 100 | 100 | 112 | 102 | 104 | 103 | 105 | 109 | 104 | 104 | 100 | 106 | 114 | 109 |
| CCN(CCO)CCCC(C)Nc1ccnc2cc(Cl)ccc12.O=S(=O)(O)O (stereo not given) [Hydroxychloroquine sulfate] | 102 | 110 | 98.7 | 108 | 103 | 107 | 104 | 107 | 109 | 106 | 106 | 105 | 102 | 101 | 113 | 110 | 124 | 108 | 114 | 111 | 101 | 96.1 | 110 | 103 | 93.1 | 105 | 106 | 103 | 108 | 95.7 | 106 | 106 | 84.4 |
| NC(=O)c1ccc(I)c([N+](=O)[O-])c1 [Iniparib] | 107 | 104 | 101 | 106 | 101 | 108 | 106 | 104 | 106 | 99.3 | 98.5 | 93.6 | 84 | 96.1 | 102 | 111 | 110 | 115 | 108 | 118 | 113 | 48.2 | 111 | 112 | 110 | 112 | 108 | 113 | 113 | 108 | 108 | 101 | 5.01 |
| COc1cc2c(cc1OC)CC(=O)N(CCCN(C)C[C@H]1Cc3cc(OC)c(OC)cc31)CC2.Cl [Ivabradine hydrochloride] | 104 | 109 | 106 | 106 | 109 | 99.7 | 101 | 105 | 101 | 103 | 101 | 82.5 | 95.9 | 106 | 102 | 98.7 | 99.9 | 95.1 | 106 | 100 | 91.7 | 91.4 | 91.4 | 101 | 102 | 93.7 | 101 | 97.6 | 94 | 97.9 | 95.7 | 92.6 | 90.5 |
| CC(=O)OCCN1C(=O)c2c(C)nc3ccc(S(=O)(=O)N4CCOCC4)cc3c2C1=O [Ivachtin] | 106 | 108 | 102 | 105 | 112 | 111 | 114 | 109 | 104 | 101 | 105 | 118 | 120 | 120 | 118 | 125 | 116 | 115 | 113 | 110 | 104 | 101 | 110 | 114 | 110 | 113 | 109 | 113 | 105 | 106 | 104 | 104 | 107 |
| CN([C@@H](Cc1ccc(OS(=O)(=O)c2cccc3cnccc23)cc1)C(=O)N1CCN(c2ccccc2)CC1)S(=O)(=O)c1cccc2cnccc12 [KN-62] | 89.2 | 91.6 | 91.7 | 89.2 | 87.3 | 95.6 | 89.6 | 97.1 | 97.5 | 94.2 | 85.2 | 91.9 | 103 | 108 | 103 | 97.3 | 110 | 104 | 110 | 105 | 101 | 81.9 | 98.5 | 107 | 103 | 103 | 112 | 104 | 103 | 105 | 107 | 112 | 91.7 |
| N#Cc1ccc(C(c2ccc(C#N)cc2)n2cncn2)cc1 [Letrozole] | 109 | 106 | 105 | 109 | 107 | 107 | 108 | 109 | 105 | 103 | 103 | 112 | 118 | 118 | 123 | 130 | 117 | 121 | 112 | 111 | 106 | 95.8 | 101 | 105 | 106 | 107 | 107 | 101 | 103 | 101 | 99.6 | 96.1 | 80.7 |
